From PMC12136788
The other results are listed elsewhere or left out.

B1: chrX:101163201:101163302:+|3pUTR|ENSG00000102384|unk|total|mutant (ssRNA)
RNA: GGGAGUUCUACAGUCCGACGAUCUCAUCAUCAGGCUCUGCGUUCUACCAAAUUGUAUGUAAAAAGACACAUCUGUUUUGUGGCCGGAUUUUUUCACAUUUUUGGGUACUAUGAGCUGCAUUGAUGGAAGACAGCAGGCAAUAUCAACAGAGGAUUGAGCAUCA
B2: chr11:108172639:108172748:-|CDS|ENSG00000149308|unk|total|mutant (ssRNA)
RNA: GGGAGUUCUACAGUCCGACGAUCGUUAUCAUCCGUGAUGAUCCAUUUGUUUCCUCAGAUACUGAACUUACCAGUGCUGUUUCCCGUAUUAAUGGAGAAAACCUGCCAACUAUAAUCUUGUCUUCUCCUACUAAAUCACCUACUCAACAGAGGAUUGAGCAUCA
B3: chr8:142872356:142874372:-|three_prime_utr|ENSG00000160882|control|control|control (ssRNA)
RNA: GGGAGUUCUACAGUCCGACGAUCUUCCUGAGUCACCCCUCUGUCUAACCAGCCCCAGCACAAAUGGAACUCCCGAGGGCCUCUAGGACCAGGGUUUGCCAGGCUAAGCAGCAAUGCCAGGGCACAGCUGGGGAAGAUCUUGCUCAACAGAGGAUUGAGCAUCA
B4: chr5:60870179:60870280:-|3pUTR|ENSG00000049167|unk|total|mutant (ssRNA)
RNA: GGGAGUUCUACAGUCCGACGAUCUCUCCUUGCCCUUUUUGUUUUGUUUUGUUUCAAUUCUCCGAACUGCCGUUGGCAUGCCGCCGGUGCUUAAUAAUUACUUGUUUUGUUGUUUCUGUCCUAUACUUUGAGAGUUUGUGUUUGCAACAGAGGAUUGAGCAUCA
B5: chr1:204551843:204551944:+|3pUTR|ENSG00000198625|unk|FALSE|unique (ssRNA)
RNA: GGGAGUUCUACAGUCCGACGAUCAGUGUUCCUGGAAUCUCUAUGCAAGUUUUAUACAGAACAUACUUUUGGAAUCCUUGCCCUAGACAGGGGUGUCCAAUCUUUUGGCUUCCCUGGUCCACAAUGGAAGAAGAAUUGUCUUGGCAACAGAGGAUUGAGCAUCA
B6: chr9:74999729:74999870:-|CDS|ENSG00000156017|control|control|control (ssRNA)
RNA: GGGAGUUCUACAGUCCGACGAUCAGUAAAUAUUCUGGUACCUGGUGCUGGACUAGGAAGACUGGCCUGGGAAAUAGCUAUGCUAGGUUAUGCUUGUCAAGGAAAUGAAUGGAGUUUUUUUAUGCUCUUUUCUUCCAACUUUGUCAACAGAGGAUUGAGCAUCA
B7: chr3:44647099:44647200:+|3pUTR|ENSG00000186448|msi1|total|mutant (ssRNA)
RNA: GGGAGUUCUACAGUCCGACGAUCAUUUGUAUGUAAACUACAUAAAGAACUUUCCAAAUUUAACAGUAAUAAGUAAAUACAAUCCGAAAAUAAGCAAAAGACAGACAUUUCACUGAAGUACCGACCGCAAAUAAGCAAAUGAAACAACAGAGGAUUGAGCAUCA
B8: chr10:110133424:110133536:+|CDS|ENSG00000148700|unk|FALSE|bound_elsewhere (ssRNA)
RNA: GGGAGUUCUACAGUCCGACGAUCGCAUGAUGUUGAAGAUGAGCUUGCUAAGCGAGUGAGUAGGUUAAGCACAAGUACAACCAUAGAAAACAUCGAGAUUACUAUUAAGUCUCCAGAGAAAAUCGAAGAAGUCCUGUCACCUGACAACAGAGGAUUGAGCAUCA
B9: chr7:76328962:76329048:-|3pUTR|ENSG00000170027|msi1_unk|total|mutant (ssRNA)
RNA: GGGAGUUCUACAGUCCGACGAUCACCUGAGGUCUCAUUCAUCCUUAUGGUUCCGGCCUUGCCAGUUUUCCGAAGUCUCUGAUCCGUUGACAGUAUUAACACUAAAUUGCAGUUUACAGUAUUUCUACAUUACAGCCAUAUGUACAACAGAGGAUUGAGCAUCA
B10: chr10:100209595:100209696:-|CDS|ENSG00000213341|unk|total|mutant (ssRNA)
RNA: GGGAGUUCUACAGUCCGACGAUCACUUCUUUCAGAGACAGGAAUUUCUCUGGAUCCUCGGAAACCAGCCUCUCAAUGUGUUCCCGAUGGAGUUGUAAGAAAAUUAAUUAUAAUAUCCCCCGAGUAUGUGAAAUCCCGAGGGAUCAACAGAGGAUUGAGCAUCA
B11: chr7:122320167:122320338:-|CDS|ENSG00000081803|control|control|control (ssRNA)
RNA: GGGAGUUCUACAGUCCGACGAUCUGUGUUGGAAGGAACACUGAACAGUAAGACUUAUGAUACUGUGCACAGACGUUUAACAGUAGAGGAGGCCACAGCCUCUGUUUCAGAAGGAGGAGGACUUCAGGGCAUUACUAUGAAAGACAACAGAGGAUUGAGCAUCA
B12: ENSG00000119401:stop:overlap|stop_codon|ENSG00000119401|stop_codon|NA|stop_codon (ssRNA)
RNA: GGGAGUUCUACAGUCCGACGAUCACUGUUGGGAUCAUUGCAUCAAGAUCUACAGCUACCAUCUGAGAAGAUAUUCCACCCCAUAGGGGAUGAGAAAUUAUCAGUUUCUUCUGCUCCCAAGCCAACUUCCCUUCCCUUAGUUCUCAACAGAGGAUUGAGCAUCA
B13: chr12:105021166:105021267:-|3pUTR|ENSG00000136010|unk|FALSE|unique (ssRNA)
RNA: GGGAGUUCUACAGUCCGACGAUCAGUCAGACAGUGUCACUUCACUCGUCUGUUUAAAACCUUUCAAUGGCCCCCAUUUCACGUAGACCAAAGUCCAACGUAUUUACCUGGCCUACUGAUCUUGCUCCUAGCUACCUCUGACCUCAACAGAGGAUUGAGCAUCA
B14: chr15:63775065:63775180:-|CDS|ENSG00000103657|unk|total|mutant (ssRNA)
RNA: GGGAGUUCUACAGUCCGACGAUCUGGUUCAGCAGAUGUCCAUUCUGUCCGUGAACGCCCCCGGUCAAGCACUGAUGCACUUACCGAAAUGGGUGUUCGAACUGGUCUAAGUUUAUUAUUUGCGCUUCUAAGACAAAGUUGGAUCAACAGAGGAUUGAGCAUCA
B15: chrX:103676501:103676735:-|CDS|ENSG00000123562|unk|total|mutant (ssRNA)
RNA: GGGAGUUCUACAGUCCGACGAUCGGAGGUUAAAGUGAAGAUUCCUGAAGAAUUAAAACCAUGGCUUGUUGAGGACUGGGACUCCGUUACCAGGCAGAAGCAGCUGUUUCAACUCCCUGCCAAGAAAAAUGCCGAUGCAAUUCUCAACAGAGGAUUGAGCAUCA
B16: chr13:52461607:52461862:+|CDS|ENSG00000136108|unk|FALSE|bound_elsewhere (ssRNA)
RNA: GGGAGUUCUACAGUCCGACGAUCGUUACAAUCCGGAAAGGGCCUCAUGAAAAAGAACUAUUACAAUCAAAAACAGCUUUAUCUAGUGUCAAAACCAGUUCUUCUCAAGGUAUAAUAAGAAAUAAGACUCUAUCAAGAUCCAUACAACAGAGGAUUGAGCAUCA
B17: chr1:173887777:173887878:+|3pUTR|ENSG00000185278|unk|total|mutant (ssRNA)
RNA: GGGAGUUCUACAGUCCGACGAUCAAAGAGAUUUGGCAGAGGGACAGGUUGUACCUGCACUGGUGAACCAUCUGUGAGAAUGUCCGUCAUGUGCUCCUUUCCUGAGAUUGCUUUGUGGUAUGUGAAAAGGUGGGCCGAAAAGAACAACAGAGGAUUGAGCAUCA
B18: chr15:41696124:41696239:+|CDS|ENSG00000174197|unk|FALSE|unique (ssRNA)
RNA: GGGAGUUCUACAGUCCGACGAUCUGUAGCCUCACCGUUAGACCAGAACGGAAGCUUCAAUGUUGUUAUUAAAGAGGAACCUCUAGAUGAUUAUGACUACGAACUUGGUGAGUGCCCAGAAGGGGUCACUGUGAAACAGGAAGACAACAGAGGAUUGAGCAUCA
B19: chr12:57820040:57820141:-|3pUTR|ENSG00000175215|msi1|FALSE|unique (ssRNA)
RNA: GGGAGUUCUACAGUCCGACGAUCUUUUGCUUAUCAUGUUCCAUUUCGUGCCGCUUUCCCCCUUCAAGAUGCCAUUUGGAGGGUAGGGGAUCUGCUUCCCACUGUGACUGGGCUAUGGGAUUCUGACUACCUUGCUUACAGAUUCAACAGAGGAUUGAGCAUCA
B20: chr15:59095394:59095499:+|3pUTR|ENSG00000157450|unk|FALSE|unique (ssRNA)
RNA: GGGAGUUCUACAGUCCGACGAUCUAAAUACCAUCCUUAAUACUGGGAACAGAAUACAACCCAUAUAAAUCAGAUGCAGGUGGUAGUCACAUCACCAGAGUGAUCAGUAUAAAUUUUCUUGGUGUAUCCUUUUCCUUUCAACACCAACAGAGGAUUGAGCAUCA
B21: chr6:105098072:105098315:-|3pUTR|ENSG00000112276|msi1|total|mutant (ssRNA)
RNA: GGGAGUUCUACAGUCCGACGAUCGUACUUUAAAUUCAUUUAUACAAAUGAAUAAGUGUAUCUUUGUAUAAUGCAUAAAUACACCGAUAAAAACAUGUUUGCUGCCAAAGUUCCCAAUAAGAUGCUUCCUGUGUUUUUUGGCCUCAACAGAGGAUUGAGCAUCA
B22: chr6:44253573:44253761:+|CDS_3pUTR|ENSG00000096384|msi1_unk|FALSE|overlapping (ssRNA)
RNA: GGGAGUUCUACAGUCCGACGAUCUCGCAUGGAAGAAGUCGAUUAGGUUAGGAGUUCAUAGUUGGAAAACUUGUGCCCUUGUAUAGUGUCCCCAUGGGCUCCCACUGCAGCCUCGAGUGCCCCUGUCCCACCUGGCUCCCCCUGCAACAGAGGAUUGAGCAUCA

What follows are binders tested against T1, UNK ZnF1-6 (called full-length) (human, UniProt Q9C0B0 30-357) (assay: nsRBNS (natural sequence RNA bind-n-seq); RBNS binding buffer (assumed for nsRBNS): 25 mM Tris pH 7.5, 150 mM KCl, 3 mM MgCl2, 0.01% Triton X-100, 500 ug/ml BSA, 20 U/ml SUPERase-In, 4 C; UNK is unkempt and MSI1 is Musashi-1; names of the RNAs are library labels; protein concentration not given here; high values mean tight binding).
T1 sequence: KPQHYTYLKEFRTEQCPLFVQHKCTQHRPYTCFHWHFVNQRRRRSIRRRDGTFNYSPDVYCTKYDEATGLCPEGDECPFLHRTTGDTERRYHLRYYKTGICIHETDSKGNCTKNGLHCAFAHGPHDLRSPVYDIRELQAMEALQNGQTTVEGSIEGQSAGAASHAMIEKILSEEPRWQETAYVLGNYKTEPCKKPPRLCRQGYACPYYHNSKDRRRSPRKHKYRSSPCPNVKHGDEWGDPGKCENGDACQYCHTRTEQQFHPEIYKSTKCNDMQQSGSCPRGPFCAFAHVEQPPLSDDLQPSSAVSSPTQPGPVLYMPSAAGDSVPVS
Binder B1 has a binding signal of 0.298 enrichment R. For B2, the binding signal was 0.361 enrichment R. Binder B3 has a binding signal of 1.02 enrichment R. With B4 the binding signal was 1.02 enrichment R. B5 showed a binding signal of 0.433 enrichment R. For B6, the binding signal was 0.736 enrichment R. B7 was tested, and the binding signal was 1.19 enrichment R. B8 showed a binding signal of 0.533 enrichment R. Work on B9 yielded a binding signal of 0.365 enrichment R. B10 gave a binding signal of 0.684 enrichment R. With B11 the binding signal was 0.854 enrichment R. Binder B12 has a binding signal of 0.595 enrichment R. B13 gave a binding signal of 0.458 enrichment R. B14 was tested, and the binding signal was 0.473 enrichment R. Binder B15 has a binding signal of 0.809 enrichment R. B16 showed a binding signal of 0.894 enrichment R. In the case of B17, the binding signal is reported as 0.76 enrichment R. B18 gave a binding signal of 1.02 enrichment R. B19 gave a binding signal of 0.65 enrichment R. For B20, the binding signal was 0.299 enrichment R. In the case of B21, the binding signal is reported as 0.38 enrichment R. B22 gave a binding signal of 1.06 enrichment R.
